The whole screen tested about 360,000 compounds, of which about 660 (0.18%) were called active. This list was built around the results that the source calls inconclusive (neither active nor inactive); the mix of calls is not that of the screen. Calls follow the shape of the dose curve; as a rule, active = well fitted inhibition curve with a large enough effect; inconclusive = small, poorly fitted or top-dose-only effect; inactive = no such curve, though single readings can be large or run the other way. Potencies beside an inconclusive call are fits to weak or partial responses and may not hold up.
Target: Rap guanine nucleotide exchange factor 4 (Homo sapiens) (UniProt Q8WZA2)
Assay: qHTS for Antagonist of cAMP-regulated guanine nucleotide exchange factor 2 (EPAC2): primary screen; also: nearly all actives have a fitted effect of over 45% in size
Settings: EPAC2 GEF exchange of Rap1B-BODIPY-GDP, fluorescence; activity, negative = inhibition: at 114 µM (top of the series) unless noted
% is scaled to controls: 0 for no effect and ±100 for the full control effect; potency is read from the fitted curve at half-maximal effect; tags tell the direction and shape of the fitted curve.

Chain of UniProt Q8WZA2 (Q8WZA2 whole entry, looked up): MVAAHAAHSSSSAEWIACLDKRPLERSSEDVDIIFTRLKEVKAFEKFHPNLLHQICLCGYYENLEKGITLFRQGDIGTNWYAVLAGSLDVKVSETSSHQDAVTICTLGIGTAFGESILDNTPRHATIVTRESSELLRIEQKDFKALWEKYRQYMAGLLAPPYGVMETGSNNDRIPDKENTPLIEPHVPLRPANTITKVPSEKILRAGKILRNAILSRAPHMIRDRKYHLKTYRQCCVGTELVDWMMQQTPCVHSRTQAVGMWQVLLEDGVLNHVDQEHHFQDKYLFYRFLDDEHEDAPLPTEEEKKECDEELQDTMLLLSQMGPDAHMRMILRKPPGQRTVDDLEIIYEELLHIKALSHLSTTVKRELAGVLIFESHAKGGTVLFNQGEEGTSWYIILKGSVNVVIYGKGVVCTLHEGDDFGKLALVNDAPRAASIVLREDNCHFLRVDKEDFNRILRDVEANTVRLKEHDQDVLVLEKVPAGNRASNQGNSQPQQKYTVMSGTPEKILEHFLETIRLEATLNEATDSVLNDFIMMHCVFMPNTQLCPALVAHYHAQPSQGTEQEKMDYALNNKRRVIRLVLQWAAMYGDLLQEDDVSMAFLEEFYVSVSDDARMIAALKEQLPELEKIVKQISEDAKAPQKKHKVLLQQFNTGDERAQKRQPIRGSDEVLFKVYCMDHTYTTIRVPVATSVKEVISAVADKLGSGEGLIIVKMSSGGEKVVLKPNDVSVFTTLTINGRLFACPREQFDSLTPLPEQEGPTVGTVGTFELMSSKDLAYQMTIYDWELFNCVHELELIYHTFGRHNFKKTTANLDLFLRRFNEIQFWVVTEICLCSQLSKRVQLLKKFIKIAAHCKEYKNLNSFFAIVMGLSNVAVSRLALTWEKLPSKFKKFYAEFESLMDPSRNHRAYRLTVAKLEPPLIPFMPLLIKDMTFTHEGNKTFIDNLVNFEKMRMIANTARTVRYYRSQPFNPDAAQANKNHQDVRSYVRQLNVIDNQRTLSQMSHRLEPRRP

Compound	Potency	activity, negative = inhibition
CCn1cc(C(c2ccccc2)C(C(C)=O)[N+](=O)[O-])c2ccccc21 (centres undefined)	inconclusive: 22.4 µM [inhibitor, full curve]	–
O=C(N/N=C/c1ccc(OC(=O)c2ccco2)cc1)c1ccc[n+]([O-])c1	inactive	–
CC(=O)c1ccc(N2CCN(C(=O)c3cccc(Oc4ccccc4)c3)CC2)cc1	inconclusive: 89.1 µM [inhibitor, single point]	–
COc1ccccc1C(CCN(Cc1cccs1)C(C)=O)c1ccco1 (centres undefined)	inactive	–
CN(c1ccccc1)S(=O)(=O)c1cccc(Cl)c1Cl	inconclusive: 39.8 µM [inhibitor, full curve]	–
CCOC(=O)c1cc(C(C)(C)C)nc(SC)c1C#N	inconclusive: 35.5 µM [inhibitor, partial curve]	–
Nc1c(C(=O)c2ccccc2)sc2nsc(SCCN3CCOCC3)c12	inactive	–
O=C(NNc1nccc(C(F)(F)F)n1)Nc1cccc(Cl)c1	inconclusive: 56.2 µM [inhibitor, partial curve]	–
Cc1ccc(C)c(N2CCN(C(=O)CCc3nc(-c4ccccc4C(F)(F)F)no3)CC2)c1	inconclusive: 11.2 µM [inhibitor, partial curve]	–
CC(C)c1ccc(N2C(=O)C(Cl)=C(N3CCOCC3)C2=O)cc1	inactive	–
CC(Oc1ccc2c(-c3ccccc3)cc(=O)oc2c1)C(=O)NC(Cc1c[nH]c2ccccc12)C(=O)O (centres undefined)	inconclusive: 79.4 µM [inhibitor, single point]	–
COC(=O)C1=CN(c2ccc(F)cc2)C(N)=C(C#N)C1c1cccc(OC)c1OC (centres undefined)	inconclusive: 11.2 µM [inhibitor, full curve, poor fit]	–
CCOC(=O)N1c2ccccc2Sc2ccccc21	inconclusive: 79.4 µM [inhibitor, partial curve]	–
O=C(Cn1c(=O)oc2cc(S(=O)(=O)N3CCCCC3)ccc21)N1CCc2ccccc2C1	inconclusive: 39.8 µM [inhibitor, single point]	–
O=C(COc1ccccc1-c1ccccc1)NCc1ccco1	inconclusive: 50.1 µM [inhibitor, partial curve]	–
O=C(Nc1ccc(S(=O)(=O)Nc2nccs2)cc1)c1cc(-c2ccccn2)nc2ccccc12	inactive	–
COc1ccc(NC(=O)c2c(C)nn(Cc3ccccc3)c2C)cc1S(=O)(=O)N(C)C	inconclusive: 39.8 µM [inhibitor, single point]	–
Cc1ccc(/C=C2\SC(=S)N(NS(=O)(=O)c3ccc(C)cc3)C2=O)cc1	active: 44.7 µM	–
Cc1ccc(C2(C)NC(=O)N(CC(=O)Nc3nc(-c4ccccn4)cs3)C2=O)cc1 (centres undefined)	inconclusive: 31.6 µM [inhibitor, single point]	–
Cc1ccc(-c2cc(C(=O)N3CCCc4ccccc43)no2)cc1	inactive	–
Cn1c(SCC(=O)Nc2ccc(C(=O)O)cc2)nc2scc(-c3ccccc3Cl)c2c1=O	inconclusive: 39.8 µM [inhibitor, partial curve]	–
Cc1nc2cc(C(F)(F)F)ccc2n1CCNc1nc(-c2ccc([N+](=O)[O-])c(Cl)c2)cs1	inactive	–
CCc1c(C(=O)NC2CCCc3ccccc32)[nH]c(C)c1C(C)=O (centres undefined)	inconclusive: 89.1 µM [inhibitor, single point]	–

Compound	Potency	activity, negative = inhibition
CC(=O)NC(C)(c1ccccc1)c1nc(-c2csc3ccccc23)cs1 (centres undefined)	inconclusive: 17.8 µM [inhibitor, full curve]	–
CCCOc1ccc(/C=C/c2[nH]c(=O)[nH]c(=O)c2[N+](=O)[O-])cc1OCC	inactive	–
O=C(N/N=C\c1ccc(COc2ccc([N+](=O)[O-])cc2)o1)c1ccc(Cl)cc1	inactive	–
CCOc1ccc(N(CC(=O)Nc2ccccc2)S(C)(=O)=O)cc1	inactive	–
O=C(CSc1nc2ccccc2n1Cc1ccccc1Cl)N/N=C/c1ccccc1C(=O)O	inconclusive: 35.5 µM [inhibitor, partial curve]	–
O=S(=O)(c1ccc(OC(F)(F)F)cc1)N1CCC(O)(c2cccc(C(F)(F)F)c2)CC1	inconclusive: 20 µM [inhibitor, full curve, poor fit]	–
COc1cccc(NC(=O)CN(C)C(=O)c2ccccc2OCC(=O)Nc2cccc(C(F)(F)F)c2)c1	inconclusive: 63.1 µM [inhibitor, partial curve]	–
Cc1[nH]c2ccc(-c3nnc(SCC(=O)NCc4ccco4)n3Cc3ccccc3)cc2c1C	–	inconclusive: -40.4% [inhibitor] [at 11.6 µM]
C=C[C@]1(C)C=C2CC[C@H]3[C@@](C)(CCC[C@@]3(C)C(=O)O)[C@@H]2CC1	inconclusive: 44.7 µM [inhibitor, partial curve]	–
O=C(NCc1ccc2c(c1)OCO2)C(=O)NCC1OCCCN1S(=O)(=O)c1ccccc1 (centres undefined)	inactive	–
COc1ccc(/C=C/C(=O)Nc2cccc(N3CCOCC3)c2)cc1OC	inactive	–
CCCCN(C(=O)c1cccc2c(=O)c(C)c(-c3ccccc3)oc12)c1ccccc1	inconclusive: 31.6 µM [inhibitor, full curve]	–
COc1ccc(-c2cc(C(F)F)n3ncc(C(=O)Nc4cc(C)on4)c3n2)cc1	inconclusive: 44.7 µM [inhibitor, partial curve]	–
COc1cccc(CNc2cccc3cccnc23)c1O	inconclusive: 20 µM [inhibitor, full curve]	–
Cc1cc(Sc2nnc(N)s2)c2ccccc2n1	inactive	–
Cc1cc2ccccn2c1C(=O)c1ccc(C#N)cc1	inconclusive: 79.4 µM [inhibitor, partial curve]	–
O=c1nc(/C=C/c2cc([N+](=O)[O-])ccc2Cl)cc(C(F)(F)F)[nH]1	inconclusive: 25.1 µM [inhibitor, single point]	–
CN(C)C(=O)/C(C#N)=C\c1cc(Br)c(Sc2ccc(Cl)cc2)o1	inconclusive: 39.8 µM [inhibitor, partial curve]	–
CN=C1C=C/C(=N/N=c2\ccn(O)cc2C)C=C1C	inconclusive: 79.4 µM [inhibitor, partial curve]	–
Cc1nc(N)sc1-c1csc(Nc2ncccn2)n1	active: 70.8 µM	–
COc1ccc(S(=O)(=O)Nc2nc3ccccc3nc2NCc2ccc3c(c2)OCO3)cc1	inactive	–
CCCCn1c(=O)[nH]c2nc3cc(N)ccc3nc2c1=O	inactive	–
Nc1ccc(C2(c3ccc(N)cc3)c3ccccc3C(=O)c3ccccc32)cc1	inconclusive: 3.55 µM [inhibitor, full curve, poor fit]	–

Compound	Potency	activity, negative = inhibition
CN(Cc1ccccc1F)C(=O)c1sccc1-c1ccccc1	inconclusive: 50.1 µM [inhibitor, partial curve]	–
OC(c1ccc(F)c(F)c1)c1nc(-c2csc3ccccc23)cs1 (centres undefined)	inconclusive: 100 µM [inhibitor, single point]	–
CN(Cc1ccccc1F)c1nc(-c2cccs2)nc2ccccc12	inconclusive: 25.1 µM [inhibitor, partial curve]	–
C[C@H]1CN([C@@H](C)CO)C(=O)CCCn2cc(nn2)CO[C@@H]1CN(C)S(=O)(=O)c1ccc(-n2cccn2)cc1	inconclusive: 2.82 µM [inhibitor, full curve, poor fit]	–
CCOC(=O)c1c(NC(=O)C2CCCO2)sc(C)c1C (centres undefined)	inconclusive: 56.2 µM [inhibitor, partial curve, poor fit]	–
CNC(=O)CN(C1CCCCC1)S(=O)(=O)c1ccc(F)cc1	inactive	–
CCc1ccc(OCC(=O)NCC(c2ccc(Cl)cc2)N2CCCCC2)cc1 (centres undefined)	inconclusive: 35.5 µM [inhibitor, partial curve]	–
COc1ccc(OCC(=O)N2CCN(c3cccc(C(F)(F)F)c3)CC2)cc1	inconclusive: 79.4 µM [inhibitor, partial curve]	–
Cc1ccc(CONS(=O)(=O)c2cc(C)ccc2C)cc1	inconclusive: 56.2 µM [inhibitor, partial curve]	–
Cc1ccc(S(=O)(=O)Oc2ccccc2/C=C2\SC(=O)NC2=O)cc1	inconclusive: 35.5 µM [inhibitor, full curve]	–
CCOC(=O)C1CCc2c(ccc3ccccc23)N1CCC#N (centres undefined)	inconclusive: 44.7 µM [inhibitor, partial curve]	–
O=C(O)c1cccc(NC(=O)c2cn(-c3ccccc3)nc2-c2cc3ccccc3o2)c1	inconclusive: 89.1 µM [inhibitor, single point]	–
Nc1c(O)ccc2c1C(=O)c1ccccc1C2=O	inactive	–
CCCCc1c(-c2ccc(OC)c(OC)c2)ncn1CCc1ccccc1OC	inconclusive: 84.4 µM [inhibitor, single point]	–
COc1ccc(OC)c(NC(=O)C2(C)CCN2C(=O)Cc2ccc(Cl)cc2Cl)c1 (centres undefined)	inconclusive: 50.1 µM [inhibitor, partial curve]	–
CN(C)/C=C/c1onc(-c2c(F)cccc2Cl)c1C#N	inconclusive: 10 µM [inhibitor, full curve]	–
CCOc1cc(CNCc2ccccn2)ccc1OCC(=O)NC1CCCCC1	inactive	–
Cc1ccc(S(=O)(=O)N2CCC(C(=O)Nc3cc(C(F)(F)F)ccc3N3CCOCC3)CC2)cc1C	inactive	–
COC(=O)c1cc(Br)c(=O)n(CCc2ccccc2)c1	–	inconclusive: -39.1% [inhibitor]
O=C(Cc1c(Cl)cccc1Cl)Nc1ccc(S(=O)(=O)Nc2ncccn2)cc1	active: 10 µM	–
Nc1cc2nsnc2cc1Br	inconclusive: 56.2 µM [inhibitor, partial curve]	–
CN(CC(=O)Nc1cccc(F)c1)CC(=O)N1CCc2ccccc21	inactive	–
COc1ccc(CC(=O)OCC(=O)Nc2cccc(C(C)=O)c2)cc1OC	inactive	–
